The record followed here is paper PMC10726135.

The other results are listed elsewhere or left out. At the low end of the ranking the order means little. Measured with an extract: partners may take part in the binding.

For the assay, the target named is T1, HNF4alpha8 (COS-7 nuclear extract) (UniProt P41235-5).
T1 sequence: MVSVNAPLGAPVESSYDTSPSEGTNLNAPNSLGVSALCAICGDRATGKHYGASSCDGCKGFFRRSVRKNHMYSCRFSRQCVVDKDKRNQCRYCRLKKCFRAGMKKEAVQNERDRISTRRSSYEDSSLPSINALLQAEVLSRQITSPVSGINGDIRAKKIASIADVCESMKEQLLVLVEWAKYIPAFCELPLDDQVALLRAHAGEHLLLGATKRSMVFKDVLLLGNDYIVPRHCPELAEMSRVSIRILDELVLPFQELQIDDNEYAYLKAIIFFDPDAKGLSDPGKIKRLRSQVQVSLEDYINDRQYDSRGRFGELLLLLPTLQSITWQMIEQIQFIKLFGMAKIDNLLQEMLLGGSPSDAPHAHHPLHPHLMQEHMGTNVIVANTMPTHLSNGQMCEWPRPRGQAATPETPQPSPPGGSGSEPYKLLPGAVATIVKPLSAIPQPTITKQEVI
Briefly: protein-binding microarray. The conditions noted are these: COS-7 nuclear extract on double-stranded Agilent 4x180k PBM; binding buffer, salt, pH and temperature not given; high values mean tight binding; double strand, one strand shown; sequences stand for … in …GCCTAGGGAGATTAGAGTATCGGTCGA
On to GGGCCCCATCATGTGTACAGAGCTGAAGTT, for which the binding signal (log2 normalized intensity) was 0.95. For TCGAGGACAGGATGGGGGTGGGAGGCTGGG the value was -1.35; for TACAAACACCAACCTGTTCCAAAGTCCACC, 6.55; for CGGATGACTCTTGGGCAGTCTAAAGTCTGA, 2.44. The same measure for CCTCCTGCCTTTCCCTTATCAGGACTTTGT: 4.3; for CAATTTTCAGGGTTAAAAGTTCTGCTGAGT: 0.935. On to GCCTGCCCCTCTGACCTCTCCTCCTACCTT, for which the binding signal (log2 normalized intensity) is 3.39. The same measure for CCCCCCACCCCAGAAGTATGGGAAGCTGAG: 3.85; for AGCAGTCTGAGTAGGAAAGACTTGCTCATT: -1.07; for TCATTTTACAGATAAGGAAACCAAGGTCCA: 1.85. Consider AACACTTGTGTCAACCGTGTCAACATTGCG, for which the binding signal (log2 normalized intensity) was -1.2. With AGACCTTTGACATCACCTAACTTGTGGCTG, the binding signal (log2 normalized intensity) worked out at 1.49. For TCGTCCCACAATGCATTCCATATGGATTAA the value was 0.33; for TTTGATAATTACAGAGCAAGTAGAGCTGCT, -1.26; for GCCTCCAAAGTCCGCTTGCCTGAGGGTCAT, 2.99. The same measure for TAGGTACTATTATTAGAGTCCCTTTTTTAG: 0.509; for AAAGTTTATGTGTGAGCCTATAATTGATGT: 1.26; for TGTGGGCGGGTGCAGCTTCCACCTGCAAGG: -0.674. The same measure for AGTCCATGTGTTAAATAATAACACTCCCAT: -0.441.

TGATAAGGAAACTTAAGTCTCAAAGGTCAG: the binding signal (log2 normalized intensity) turned out to be 6.45. With AGAATCATCTTTGAGCTGGATGACCTTTGT, the binding signal (log2 normalized intensity) came out at 8.24. For TTTCTCAGCTCTCCTCTGCCTCCAGCTGTT the value was -1.3; for AAGGAATTTAGCCTTTAACCTGCAGTTTCC, 2.31; for TTATGAGGCCTAACTGGCTTTGTCTGCTCA, -1.28. For CGAGTCCCTGCTGTGTCACGTACCGGCTAG the value was -0.767; for GTGTGCTTTGTAGCACTTTGGACCTCCACT, 5.13.

As for GAAACAGTCACAGTTATCAGACAGAGGAAT, the binding signal (log2 normalized intensity) is -1.34. For AACAAATCCAGGCAGGACTCTGTCCTGGGC the value was 0.361; for CCATCAAGGATCAAGGACCTGCTCTGGGGC, -1.27; for GAAGACTTCGCTGGAATGTCACAGGGATTA, -1.08.

As to TGAGGCCAGACAGGGGGGCGCCTACGGACG, the binding signal (log2 normalized intensity) is -1.49. Regarding GGTCCTACTCACACTCAAGGCAAGAGAGTC, the binding signal (log2 normalized intensity) is -1.4.

For ATCTAAGCTGGACTTTGAACTTCATGTGTG, the binding signal (log2 normalized intensity) came to 8.61.

Consider CCAAAGTCCAAAGTCCAGTCTTATCTGAGA, for which the binding signal (log2 normalized intensity) came out at 7.93. For TTAGGGGTTAGGGTTAGGGTTAGGGTTACG the value was 1.17. For CCACATTCTCCACTGGGAAGTAGAAGAAAG the value was -1.39; for TTATAATCGCAGAATAAACGCTGAAGTCTC, -1.26; for AGGCTGAGCCTAGGAGTTCAATGCTTCAGT, -0.187. The same measure for CTGTTCTGTTCCCTGGACTCAGCTCCCATA: 1.78; for TTGATCAAAGGTTGGACTGAGGACCACATG: 2.78. Consider CCAGAGCCAAAGGGCATATTGACTGCCCCA, for which the binding signal (log2 normalized intensity) was found to be 2.74. The same measure for AACGCTAGACACTGGGGACTAGTAGAGTGG: -1.33. The same measure for AGGAATCCTGACCAGGGGCCAGCAAGAGGT: -1.38; for TGTCTTTTCTCCCCTGACTACCAGCCAGTA: 1.09; for CAGTGAACAAAACATGGATTTTGGAGCCAA: 0.525. The same measure for GGTCCCTGGAGATAATAGTGGCTGAAAGTA: -1.25; for GGAAGGGCTTTATGACCAGTGTGTTGTGCT: 0.182; for GATGTTGGGAGGAGTGGACTTTGATCTCAG: 9.38. For AAAGAGACATCTGGGAACAAGTTCTGCAGA, the binding signal (log2 normalized intensity) was -1.31. For TTTCAATTACAAAGCAACACAATGCATATC the value was -0.943; for CATCTGCCCAGCAGAGCAGTTTAGAGAAAG, -1.31; for GTTAGACTACTTATCTCCAAGACCCTTCAT, 0.521. The same measure for GAGGAATCCCATTCCCTCTAATCTGGGACA: -1.2; for AGTCCCTGAGTATTATCTTTTTAATCAATA: -0.318; for GGGTGAGTGCATGAATCAACTGTTGTGGAC: 1.79. For CATGGATGACCTCTTTTAGTAACTGACTTT the value was 1.96. With AGCTCGCTCAGCTGGTTGCCCCTTTGACCC, the binding signal (log2 normalized intensity) stood at 8.48. For GGACTTTGGTCTGCTGAGTCTCATGATTAG the value was 5.1. GAGCAGGGAGCGAGACGCTGAGCTTCTGCG: the binding signal (log2 normalized intensity) is -1.47. The same measure for CTTTGGCCAAATAATAGCATTGTAGTAATA: 0.658; for TTTGAACTGTGTTGCAAATTATTACTCCCA: 1.49. The same measure for GGCATGCATATGAGTAATGTGAAGACTTCG: 0.667; for GGCCTCCAGAAGGAATGCAGCCCTGCCACT: -0.835; for AGTTTCCCTTGATCAAAAACTGCCTAAATC: -1.1. The same measure for TAAATACTTCTCCTCTTATCTTCAGGTTTG: 1.12; for GAGCAGTCCTGCACATGAATGATCAAAGGT: 2.35; for ATGTGTTTGCTTTTTACCATCTCCAACATG: 0.341. For the sequence TACCGGCTAGACAAACAGCTTCTGTCCTAA, the binding signal (log2 normalized intensity) was -1.39. For CCATAGGCAGCTTCAGGATGAAGGCTGCTG the value was -1.22. The same measure for GAAGATCGCAGACTTTGGACTCTGCAAGGA: 6.68.

In the case of TCTTTCAGGGTGGGAAAGGAATGTAATGTA, the binding signal (log2 normalized intensity) was 0.874. The same measure for ATCTTGGGTTAGGCCTTTAGAGGATTTACT: -1.25.
